Measured values: the supplement of paper PMC11417369
± gives the standard deviation of the averaged measurements. This is one part of the list.

System: PfAP2-I AP2 domain 3 (GST-tagged)
Assay: gcPBM binding intensity (ln(normalized median fluorescence intensity)); higher = stronger DNA binding
Outline: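 The highest Masliner-normalised natural-log median intensity across replicate spots of either probe orientation is reported as binding intensity. GST-tagged P. falciparum DNA-binding domains expressed in E. coli were applied for 1 h to an Agilent 4 × 180k array of primer-extended double-stranded 36-bp intergenic genomic probes plus negative controls, and bound protein was detected with Alexa488 anti-GST antibody and scanned at 488 nm.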

Sequence | gcPBM binding intensity (ln)
GCTAAACAATAGTTTGCACACAATTTAAATATATAT [CACACA_site193] | 8.55 ± 0.3
AATATAATATAATGCACACATAAAAAAAAAAAAATC [CACACA_site1303] | 11 ± 0.64
TTATATACATTAAATGAACACACATAAATAAATTAC [CACACA_site8927] | 7.64 ± 0.49
AGTATAAATATATTATGTACATATATATTATACTTA [XGTACX_site2623] | 7.68 ± 0.28
ATTTTTTTTATGTATTATGCTTTTATATCCTTCATA [CACACA_negctrl_site1244] | 8.02 ± 0.69
AAAGAATTTGCATATACACACAAAAAAATAAATACA [CACACA_site4373] | 7.83 ± 0.53
ATTTCTTTTACATTTACATGCAATGCTCTATAGATA [TGCATGCA_site62] | 8.09 ± 0.73
CTTACCAAAAAACACACACACACAAAATATATAAAT [CACACA_site1870] | 7.96 ± 0.53
TTATTTTTTAGTAGTACACACTTTTTGTACCTTTTA [CACACA_site4503] | 8.29 ± 0.4
GACACCCATAAATATACACACGCACAACACAAAATA [CACACA_site8944] | 8.35 ± 0.32
CTAAAAGAACATGTGTGTACTTATGTTCTCTTTTTT [XGTACX_site5983] | 7.46 ± 0.54
AATAAAAAAAAAAAAAAAAAAAAAAAGACACTAAAA [CACACA_negctrl_site1075] | 7.44 ± 0.61
TATAATAAATGGACGGTGCGACATGACCATATGTGT [GTGCAC_site9476] | 8.73 ± 0.48
AAAAAGAAGAATAATACACACAAATTATTTTATATA [CACACA_site1919] | 7.43 ± 0.61
TATTCCAAAAATGTGTGTACATAAATACAATATTAT [XGTACX_site2653] | 8.01 ± 0.29
TTGTTAATAAAAATATTGGAAAGTTTATAAAATTTT [CACACA_negctrl_site1487] | 7.53 ± 0.52
TTATTTTCTTTTTCTTGTACACACATAATATGGATG [XGTACX_site1481] | 7.9 ± 0.67
ATAATATATATACAAACACACAATTGCGTCCACATT [CACACA_site8515] | 8.15 ± 0.5
CATATAATTATTTTCACACATATAACTACATCTATA [CACACA_site5915] | 7.78 ± 0.41
TAAGATCCTTAAAACGCATGCAGTATTTTTATTTCT [TGCATGCA_site532] | 7.49 ± 0.84
TAGCCAAAAGGATATGCACACACACCCACATATATA [CACACA_site8684] | 8.59 ± 0.24
ATATAAATAAAAAAAAGTACATAATATATAAAAATA [XGTACX_site3065] | 7.96 ± 0.45

Sequence | gcPBM binding intensity (ln)
CTTTTACGTTTAGGATGTACATTTAAAAAAAAAGAA [XGTACX_site8032] | 8.13 ± 0.26
TTAAGATGCATAAATACATGCAAAGTAAATAATTCT [TGCATGCA_site517] | 7.84 ± 0.64
AATAAATATTAAATGACAAAAAAAAAAAAAAAAGGG [XGTACX_negctrl_site15] | 8.615 ± 0.049
TATAATCCATAAGAAGCACACACATATATATATATT [CACACA_site8394] | 7.92 ± 0.38
ATTATAAGAATTAAAAGAAACAAAATTTTAATTATA [CACACA_negctrl_site610] | 7.6 ± 0.4
TTAGCAGGACGTTTGGTGCACGTACTGTTTTTCTTT [GTGCAC_site9856] | 10.14 ± 0.078
TCTTTCTGCTCTTATACACACAAATAAAGATTTTTT [CACACA_site2700] | 8.29 ± 0.6
CATTGACCATTAATTTGTACACAAGGGGAAATGAGG [XGTACX_site1756] | 8.19 ± 0.45
TATATATATATATATATATATATATATATATATATT [CACACA_negctrl_site1440] | 9.12 ± 0.85
ATGAAATTTTCATATTGTACTATTAAAAATATATTT [XGTACX_site1989] | 7.74 ± 0.43
TAAGGGATATGTATATGTACATACAAATATATATAA [XGTACX_site2892] | 7.75 ± 0.47
TGTAGATTTTGTAACACACACATATAAATACAGATA [CACACA_site5343] | 7.84 ± 0.48
AATTTCATTTTTAGAAGTACATTTATATTAAAAATC [XGTACX_site2888] | 7.67 ± 0.4
TTTGCTTCGATATATTCACACATTTTTTTTCTTATT [CACACA_site4499] | 7.94 ± 0.57
AAATGTAATAAATATACACACACAAATATATATATA [CACACA_site8754] | 8.98 ± 0.12
TTTTTTTTTTTTGTCACACATATTTGTATTAATCAT [CACACA_site5235] | 8.29 ± 0.67
CAACATTTGAAACACACACACATACAAACAAACAAA [CACACA_site3306] | 8.07 ± 0.27
TGAAATGGAAACAACTGTACAAAATAAATATGATAT [XGTACX_site1311] | 8.04 ± 0.71
AATATTAACAATCGCACACATATTATTTTTCCAAAA [CACACA_site4982] | 8.21 ± 0.39
ATATAAATATAGCATACACACAAAAAAATAAAATAA [CACACA_site2333] | 7.75 ± 0.69
TTTTTATTAAAATGTATTTTAGGAAAAAACAAAAAA [XGTACX_negctrl_site437] | 7.59 ± 0.53
TTCCCTTTTGTAAAATGTACATATATATTTAAACAA [XGTACX_site3263] | 8.01 ± 0.36

Sequence | gcPBM binding intensity (ln)
TAAGTTCCCTTTGAATGTACATATAATGAAAAGAAA [XGTACX_site826] | 7.96 ± 0.42
AAAAAACTTTTAAGCACACACATAGATAATATAGAT [CACACA_site6835] | 8.76 ± 0.092
ACATCTAATTTGTATACACACAATAATAAATGGTGA [CACACA_site824] | 7.74 ± 0.46
TATATATATTTATAATGTACATATTTTTTTTTATTT [XGTACX_site4761] | 8.09 ± 0.64
TTGTATATATGACTTTTTTATATTTCAATTTTGTGC [CACACA_negctrl_site296] | 7.55 ± 0.51
GAGATAAAATAAAACACACACATATATTTATATAAC [CACACA_site7098] | 7.76 ± 0.5
TATTAATTTTTAAACATAATTTTTCGTATAATATAT [CACACA_negctrl_site762] | 7.46 ± 0.38
TTTACTTTCTTATTTTCACACATTTAAAAAAAAATT [CACACA_site5949] | 8.12 ± 0.33
TATGGAAGAAAATATACACACAAAAAAAAAAAATGT [CACACA_site1486] | 7.86 ± 0.66
ATACTTTTATTTTTGGTGCATATATCATGTAGACGT | 10.56 ± 0.028
AATTTATTATTTGTATGTACTCATATGATTCACTTA [XGTACX_site2797] | 7.84 ± 0.62
AAATGAAATAAATGTAGTACACATATACAATATATA [XGTACX_site6951] | 7.79 ± 0.2
TATTTTTATACAATTTAACACGGGTTATAAAATGTA [CACACA_negctrl_site566] | 7.6 ± 0.51
TGTATATCATATATTTGTACTCAATTAATATAAACA [XGTACX_site3970] | 7.62 ± 0.3
AAAATCAAGTAGTATAAAGTAAGTATCATAAAAATA [CACACA_negctrl_site1554] | 7.63 ± 0.59
GTACACTAATTATGTGCACACAAATTAAAGGTCTAC [CACACA_site146] | 10.27 ± 0.049
ATAATAAAATGGAGAGTGCATACATGTTTATTTTAT | 9.4 ± 0.42
AGATATATTATTAGGTGTACTATAAAATAAATTCAC [XGTACX_site221] | 8.29 ± 0.21
CGAACAAACAAATAAACACACAAAAAAAGATATATA [CACACA_site6944] | 7.5 ± 0.64
AAAAAAAATTAGGAAACATGCATGTCCCGATAAATA [TGCATGCA_site149] | 7.79 ± 0.67
AAATGTGTTTATTTAACACACAAAAGAAAAAATATA [CACACA_site6993] | 7.69 ± 0.59
AATGTAAAATATATGTGTACATATGTTTATATATAT [XGTACX_site2216] | 8.36 ± 0.61

Sequence | gcPBM binding intensity (ln)
GTGTGTTGTATATACTGTACATACTTTATATATAGT [XGTACX_site1876] | 8.48 ± 0.13
TATAACAAGTAATGTTGTACATTGTATTATGTAATA [XGTACX_site6372] | 7.71 ± 0.31
TTACTCATGAAAGATACACACATTCATTATATATAT [CACACA_site3252] | 8.27 ± 0.6
TATATAAACCCGTACACACACATATATGTATATATA [CACACA_site3507] | 8.32 ± 0.18
AAATTTACAATACATTGTACATATTAATAATATTCC [XGTACX_site3646] | 7.67 ± 0.5
AGACATAAGATAATTACACACAATACATCCCTATAT [CACACA_site2227] | 7.76 ± 0.57
TACTTCTACAAGAGAAGTACAATATTTTTTATATTA [XGTACX_site8351] | 7.42 ± 0.32
AATAAAAATTTACTTTGTACACATATTAAATTCAAT [XGTACX_site1957] | 7.83 ± 0.15
TTAACGTAAAATATAGTGCATAGTATCATATTGATA [GTGCAC_site9527] | 9.5 ± 0.099
CAATCAAAGAAACACACACACACCTAAACATAAAAG [CACACA_site2756] | 8.07 ± 0.35
TGTAGTTTGTCCCATGCATGTTCCATTAAAATATAT [TGCATGCA_site854] | 8.44 ± 0.67
AATGTATATATGTAATGTACATATATAATGTATATA [XGTACX_site6510] | 7.72 ± 0.15
AACTAAACAAAAGTTACACACATCATACGATATTAT [CACACA_site3180] | 7.54 ± 0.64
ATAATTTATATTCAGAAACACACGAAAAAAAAAAAT [CACACA_site1296] | 7.93 ± 0.45
ATGTTAAGAATAATTAGTACTTACATATGTATAATA [XGTACX_site4419] | 7.7 ± 0.53
ACCATATAATTTTTTTGTACATAATGATTTTTTTTT [XGTACX_site1104] | 7.99 ± 0.45
TATATTATATACGTCTGTACACAAATGAGAGGTAAA [XGTACX_site5538] | 8.12 ± 0.42
AAAAAATAATAATAAAATGAATAGATATGTATTTAT [TGCATGCA_negctrl_site210] | 7.45 ± 0.74
AATAATATATATTGTACACACAAAATGGGAAAAAAA [CACACA_site5100] | 8.21 ± 0.61
TTATAAAAAAAAAAAAAAAATATATATATATATATA [XGTACX_negctrl_site592] | 9.29 ± 0.49
ACAAAATGTAAATAAACACACATATATATATATATA [CACACA_site1281] | 9.4 ± 0.51
AGCAGAGTTACAATTTGTACGTAATTGATATAGATA [XGTACX_site4051] | 7.88 ± 0.5
